The supplement of paper PMC10126150
Values marked as one replicate rest on one cluster of the flow cell; about a third of the high ones do not repeat.

Tested on: ATP
Experiment: switch fluorescence ratio, 500 uM ATP over buffer (Cy3 cluster intensity, sum of 5 cycles each) (fold (ratio)); higher = stronger signal-on switching upon ATP binding; sequences stand for … in TCGTCGGCAGCGTCAGATGTGTATAAGAGACAGTTTTTTTTTTTTTTTTTTTTTTTTT…TC
Settings: aptamer strand: ATP DNA aptamer (quencher-CACCTGGGGGAGTATTGCGGAGGAAGG + anchor), 100 nM annealed; ATP concentration: 500 uM; one replicate
Method in brief: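 Clusters with intensities outside 100-1000 RFU were excluded. The remaining Cy3-labelled switching-strand clusters on a modified Illumina MiSeq flow-cell had been annealed to 100 nM quencher-labelled ATP aptamer and imaged in selection buffer, then after 15 min with 500 uM ATP at 22 °C, for five cycles separated by NaOH stripping and re-annealing. The fluorescence ratio, averaged per switch-domain sequence, is each cluster's summed target-cycle Cy3 intensity over its summed buffer-cycle Cy3 intensity.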
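Note: ATP exposure 15 min at 22 °C before imaging.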

Sequence	switch fluorescence ratio
TAGTGCAGAT	0.986
CTATATCGTT	1
CGCCTGTCGT	0.99
GAAGTCTCCC	1.06
AAGCCACGAG	1.09
TATATGCTGC	1.05
CTTGCATTGC	2.12
TCGCTCACCG	1.03
AATGTCAATT	0.997
GCGGGGTG	1.03
GGGTCTACCT	1.03
ATTTACGCT	1.07
AACGGAAGGG	1.05
TCAGACGTAA	3.58
GACGGCATGT	0.978
ATATGAGCAT	0.975
AGAATTTGCT	0.943
CTTCACTGC	1.06
TGTGTTA	0.947
CTAGTGTCGT	0.951
GACGTGCTCG	0.932
AATTGATCGG	0.972
GGGTCGGTCG	0.974
ACTTATTTTC	1.02
AATACTGAGA	1.03
AAAGTAGGGG	0.999

Sequence	switch fluorescence ratio
AATTAATAAC	1.01
ACGGTGGTAT	0.989
TCAGCCTTTT	0.974
AATCAAGTA	0.997
CATGATTAAG	1.02
GTGCCGACTT	0.997
TTTGCATGGA	1.03
ATTGACGGCT	0.991
CATAAAAC	0.996
AGTCTAGTTC	0.99
GGATAATTAT	0.979
AGTATCGGTC	0.982
CAGGGCTGTT	1.02
TCTTCGTCTC	1.07
TTGCAGAATG	1.02
CACAATGCGA	1.85
AGTTGAGGCG	1.09
TCTACTCTCG	1.01
CAGGAGGGTC	0.933
TACAGGGTGG	0.985
TCTAAATGGC	1.04
CTTGCTCCGA	4.4
CCCCTATCAG	0.994
CGATAGGGTA	1.02
ATTCTCGAGG	0.964
ACTCAAGGTC	1.06

Sequence	switch fluorescence ratio
AACTATGTCC	1.05
GTGAAGGGAA	0.953
CGGGCACTGT	1.02
ACTTTAAATA	0.995
GGTGGCAAAA	1.02
TATCCGAA	1.04
GCTACCAGAC	1.72
CCAAAACA	1.04
GAAACACGAT	1.05
CTTGAAGTCC	1.02
GTAGCCTATT	1.04
CGATAGAGTT	0.979
TGAGAAAAGT	0.986
CTAGACATCG	1.1
TTGCTTTTA	1.01
ACGAGCTCG	1.01
GAGCGGAGGA	1.05
AGGTGGGTGT	0.994
CCTATAGCGT	1.37
TAGGGGACCA	1.05
TCCCAGCTTG	1.02
CAACATTACA	1.21
AGTGGCACT	1.01
ACATAGGGGG	1.01
ACTAGACCGC	1.19
TTCTGAACGG	1

Sequence	switch fluorescence ratio
GTGGCACGCG	1.01
GTTTTAGACT	1.01
GCTAGTGTTG	1.02
GAACTTTTCC	1.45
GACTGCCCCG	1.02
ATCGGCAATG	1.79
GGCGTACTGC	1.01
ATTAGCGATG	0.971
TGGGGAGCGG	1.07
AGTATGGGAA	1.05
ACTAATCGCC	1.02
CCAACATCTT	1
AATTCATCTG	1.05
TGGGGCTGGC	0.958
TTCGCTCAA	0.995
TTGCTGCGAC	1.04
GACGCATCCA	2.7
CGAAGGTGTG	0.937
ATCACCGCCG	1.09
GCACTGTTCC	1.12
GGATAGACGA	1
TGGTCGGCAT	1.01
AGTCTTCG	1.09
TCATTACCG	1.01
AGACAGTTTA	1
TATGATGAGC	1.07

Sequence	switch fluorescence ratio
TTGACTCTTC	0.966
CAATTTCGGG	1.01
GGTGGTACGG	1.07
GTCACTAGGG	1
TTTCCCGAG	0.976
GGGAATTCGC	0.99
GGAGGGCTGG	1.03
CCTCTTTATG	1.07
CGAATGATTC	1.02
TTTATACAAT	0.963
GCTACCCTTG	1.08
GATCAACCGT	0.963
TCCCGTAGAA	1.16
TTCGGTGTAA	0.997
TGTGTAAGCC	1.06
TAGTTTACAA	1.02
TGCGCAGTTT	1.04
TATAATTCAA	1.02
CCGGCCTCCA	2.57
GCTACGAATG	1.04
GAGTCGCTAG	1.01
TCCAGATTCG	0.952
CCTTATATAA	0.958
TACATTCTCC	1.14
ATGCCGAACG	1.06
GACAAGCGTA	1.01

Sequence	switch fluorescence ratio
CAGGTCTGGA	1
GAAGTTTAG	1.05
CGCTATCATT	0.993
CAGTATCCCT	1.04
GGTGTCTTGT	0.989
TATAATTCAT	1.05
GTATCGGTGA	0.995
GGCGTGATGA	1.03
TGGTAGTGTT	1.01
CAGAGGTGAT	1.06
GTAGATATTG	1
ACGTCGGTGA	0.987
GAGGCGTATC	1.07
AGAGAGTGTG	1.01
TTGGTCAAT	0.998
TAGCCGCACC	2.91
GACATTGTGC	1.03
CAGCGGAATT	1
AATTCAAGTT	1.01
AAAAATGCCC	1.11
TGGGCGGCAG	0.969
TTATTGACCA	1.04
CCATGAAACG	0.996
GACGGAACTT	1.22
ACTTAGAGGT	1.03
TGTGGCAAAT	0.995

Sequence	switch fluorescence ratio
TCCGCCGGGT	1.1
TGCATATGTC	1.02
GGTGAGTTCC	0.986
CGAAAGGATT	0.957
AAGTACGC	1.18
ATGGTAATCG	0.995
CGATTGTCGG	0.97
GCGACTCAAC	1.85
TAAGTTATCG	0.974
TGAGATTAGA	0.969
CGCACTGGGG	1.37
AGACTTTGGT	1.01
TATGGTTCAG	0.951
GCACACCGCG	1.11
ATGCAACGA	1.02
CGTCGCGTAC	3.26
AGTTCTGATC	0.932
GAGTAGTGTA	0.974
CAGGAGCCGC	1.08
AAGGGGCG	1.13
CTTGTACTT	0.991
TTTACCCGAC	1.22
TAATTAGGTG	1.17
TTGACTTCTC	1.01
GGTTGATAGT	0.922
ACGCCTACTG	1.38

Sequence	switch fluorescence ratio
CGTACGGCTA	1.08
GTTTGGACTA	1.03
TCCTTGGGG	1.04
AGAACTGCAA	1.58
AATTTATAGG	1
GTGTCTTCA	1.01
AACTAATGGA	0.972
GGCCTCCTTT	1.02
TGGTTAATGT	0.978
GGGCTTCAC	0.99
CGTCAATAAT	1.93
GGTTCTGACG	0.941
ATCTGTCCGC	1.37
GAAAAGAAAA	1.1
TTGCTGGCAA	1.39
TGGTATAGAT	1.02
TCTAGTTCAG	1.04
CTTCGCAG	4.32
TTTGCTGGG	0.985
